Measured values published in patent US5550212A, “Analogues of hGH-RH(1-29)NH2 having antagonistic activity” (The Administrators of the Tulane Educational Fund, priority 1993, dated 1996).
Not every detail of the peptide structures is certain; ends, links or a residue may be inferred. Non-standard residues stand in square brackets, D forms with d. Residues, ends and D or L forms follow the SMILES beside them. *: point of attachment. Acetyl(1-naphthyl) = O=C(Cc1cccc2ccccc12)*; Phe(4-Cl) = N[C@@H](Cc1ccc(Cl)cc1)C(=O)O; Agmatine = N=C(N)NCCCCN*; Isobutyryl = CC(C)C(=O)*; Nle = CCCC[C@H](N)C(=O)O; Abu = CC[C@H](N)C(=O)O

Key:
[1] = test system: hGH-RH(1-29)NH2 induced GH release; test: In vivo test: serum GH levels in rats pretreated with GH-RH antagonists before hGH-RH(1-29)NH2; set-up: species or system Sprague-Dawley rats
Protocol: In Vivo Tests. Adult male Sprague-Dawley rats are anesthetized with pentobarbital (6 mg/100 g b.w., i.p.). Blood samples are taken from the jugular vein 30 min after the injection of pentobarbital. One group of 7 animals receives hGH-RH(1-29)NH2 as control. Other groups of rats are injected with [Ac-Tyr^1,D-Arg^2 ]hGH-RH(1-29)NH2 as Standard antagonist, or with one of the antagonist peptide 30 seconds prior to hGH-RH(1-29)NH2, which is administered at dose of 2-3 μg/kg b.w. Blood samples are taken from the jugular vein 5 and 15 min after the injection of antagonists. GH levels are measured by RIA. Potencies of the antagonists are calculated by the factorial analysis of Bliss and Marks with 95% confidence limits and are based on the doses of 100 and 400 μg/kg b.w. of the Standard antagonist and 20 and 80 μg/kg b.w. of the antagonists tested. Statistical significance was assessed by Duncan's new multiple range test.

[2] = test system: GH release; settings: cited from earlier work
[3] = test system: GH-RH(1-29)NH2 -induced GH secretion; test: Example IX: Peptide 18 suppression of GH-RH(1-29) stimulated serum growth hormone release in rats; type: in vivo, Sprague-Dawley rats
[4] = test system: hGH-RH(1-29)NH2 induced GH release; test: Superfused rat pituitary system: inhibition of hGH-RH(1-29)NH2 induced GH release; type: cell-based; settings: for Inhibition of GH release (%) 0 min: 0 min response; for Inhibition of GH release (%) 30 min: 30 min response; for Inhibition of GH release (%) 60 min: 60 min response; for Inhibition of GH release (%) 120 min: 120 min response
[5] = target: T1, rat pituitary GH-RH receptors (Rattus norvegicus, UniProt Q02644); test: GH-RH binding assay, competitive binding on rat anterior pituitary membrane homogenates; settings: ratio of Ki values, Standard = 1
T1 construct: from tissue; host or cells: rat anterior pituitary (male Sprague-Dawley), crude membranes
T1 sequence (Q02644 23-464): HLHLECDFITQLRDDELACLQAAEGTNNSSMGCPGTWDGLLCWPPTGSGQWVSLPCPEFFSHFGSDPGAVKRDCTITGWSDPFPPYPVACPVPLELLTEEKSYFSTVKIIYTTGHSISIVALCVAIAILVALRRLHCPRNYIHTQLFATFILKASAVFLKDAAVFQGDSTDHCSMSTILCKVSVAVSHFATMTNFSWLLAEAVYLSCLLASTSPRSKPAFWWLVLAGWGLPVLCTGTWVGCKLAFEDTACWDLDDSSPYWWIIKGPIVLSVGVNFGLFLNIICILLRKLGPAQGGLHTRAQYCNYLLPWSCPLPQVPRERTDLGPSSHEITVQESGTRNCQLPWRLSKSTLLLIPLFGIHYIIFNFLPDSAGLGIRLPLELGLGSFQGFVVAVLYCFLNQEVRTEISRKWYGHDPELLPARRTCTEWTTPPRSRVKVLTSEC
Protocol: GH-RH Binding Assay. A sensitive radioreceptor binding assay was developed to determine the binding characteristics of the antagonists of GH-RH (G. Halmos, A. V. Schally et al., Receptor 3, 87-97, 1993), hereby incorporated by reference. The assay is based on binding of labelled [His^1,Nle^27 ]hGH-RH(1-32)NH2 to rat anterior pituitary membrane homogenates. Iodinated derivatives of [His^1,Nle^27 ]hGH-RH(1-32)NH2 are prepared by the chloramine-T method (F. C. Greenwood et al., Biochemistry 89:114-123, 1963), hereby incorporated by reference. Pituitaries from male Sprague-Dawley rats (250-300 g) are used to prepare crude membranes. For saturation binding analyses, membrane homogenates are incubated with at least 6 concentrations of [His^1,^25 I-Tyr^10,Nle^27 ]hGH-RH(1-32)NH2, ranging from 0.005 to 0.35 nM in the presence or absence of excess unlabelled peptide (1 μM). The pellet is counted for radioactivity in a y-counter. The affinities of the antagonist peptides tested to rat pituitary GH-RH receptors are determined in competitive binding experiments. The final binding affinities are estimated by Ki (dissociation constant of the inhibitor-receptor complex) and are determined by the Ligand PC computer program of Munson and Rodbard as modified by McPherson. Relative affinities compared to [Ac-Tyr^1,D-Arg^2 ]hGH-RH(1-29)NH2, the Standard antagonist, are calculated as the ratio of Ki of the tested GH-RH antagonist to the Ki of the Standard antagonist.

Compound: CC[C@H](C)[C@H](NC(=O)[C@H](C)NC(=O)[C@H](CC(=O)O)NC(=O)[C@H](C)NC(=O)[C@@H](N)Cc1ccc(O)cc1)C(=O)N[C@@H](Cc1ccccc1)C(=O)N[C@H](C(=O)N[C@@H](CC(N)=O)C(=O)N[C@@H](CO)C(=O)N[C@@H](Cc1ccc(O)cc1)C(=O)N[C@@H](CCCNC(=N)N)C(=O)N[C@@H](CCCCN)C(=O)N[C@H](C(=O)N[C@@H](CC(C)C)C(=O)NCC(=O)N[C@@H](CCC(N)=O)C(=O)N[C@@H](CC(C)C)C(=O)N[C@@H](CO)C(=O)N[C@@H](C)C(=O)N[C@@H](CCCNC(=N)N)C(=O)N[C@@H](CCCCN)C(=O)N[C@@H](CC(C)C)C(=O)N[C@@H](CC(C)C)C(=O)N[C@@H](CCC(N)=O)C(=O)N[C@@H](CC(=O)O)C(=O)N[C@H](C(=O)N[C@@H](CCSC)C(=O)N[C@@H](CO)C(=O)N[C@@H](CCCNC(=N)N)C(N)=O)[C@@H](C)CC)C(C)C)[C@@H](C)O [GH-RH(1-29)NH2, hGH-RH(1-29)NH2]
- GH Levels ([1]; GH-RH(1-29)NH2 alone, 3.0 μg/kg intravenously): 956.7 ± 113.6 ng/mL
- potency retained relative to native hGH-RH [2]: ≥ 50%
- GH Levels ([3]; GH-RH(1-29)NH2 alone, 3.0 μg/kg iv): 1650.6 ± 182.7 ng/mL

Compound: CCCC[C@H](NC(=O)[C@@H](NC(=O)[C@H](CC(=O)O)NC(=O)[C@H](CCC(N)=O)NC(=O)[C@H](CC(C)C)NC(=O)[C@H](CC(C)C)NC(=O)[C@H](CCCCN)NC(=O)[C@H](CCCNC(=N)N)NC(=O)[C@H](C)NC(=O)[C@H](CO)NC(=O)[C@H](CC(C)C)NC(=O)[C@H](CCC(N)=O)NC(=O)[C@H](CC)NC(=O)[C@H](CC(C)C)NC(=O)[C@@H](NC(=O)[C@H](CCCCN)NC(=O)[C@H](CCCNC(=N)N)NC(=O)[C@H](Cc1ccc(O)cc1)NC(=O)[C@H](CO)NC(=O)[C@H](CC(N)=O)NC(=O)[C@@H](NC(=O)[C@H](Cc1ccc(Cl)cc1)NC(=O)[C@@H](NC(=O)[C@H](C)NC(=O)[C@H](CC(=O)O)NC(=O)[C@@H](CCCNC(=N)N)NC(=O)[C@H](Cc1ccc(O)cc1)NC(=O)Cc1cccc2ccccc12)[C@@H](C)CC)[C@@H](C)O)C(C)C)[C@@H](C)CC)C(=O)N[C@@H](CO)C(=O)NCCCCNC(=N)N [Peptide 18, [Nac^0,D-Arg^2,Phe(pCl)^6,Abu^15,Nle^27]hGH-RH(1-28)Agm] ({Acetyl(1-naphthyl)}-Y[dR]DAI[Phe(4-Cl)]TNSYRKVL[Abu]QLSARKLLQDI[Nle]S-Agmatine)
- duration of action in vitro (in words) [4]: extremely long acting in vitro
- inhibition of GH release, of the control value ([4]; 3 nM dose, 6 hours after the incubation): ~48%
- inhibition of GH release, of the control value ([4]; 30 nM dose, 4.5 hours after the incubation): about 96%
- Inhibition of GH release (%) 0 min ([4]; dose 0.3 nM): 11.0%
- Inhibition of GH release (%) 30 min ([4]; dose 0.3 nM): 45.0%
- Inhibition of GH release (%) 60 min ([4]; dose 0.3 nM): 15.6%
- Inhibition of GH release (%) 120 min ([4]; dose 0.3 nM): 13.5%
- Inhibition of GH release (%) 0 min ([4]; dose 1 nM): 56.3%
- Inhibition of GH release (%) 30 min ([4]; dose 1 nM): 56.7%
- Inhibition of GH release (%) 60 min ([4]; dose 1 nM): 41.3%
- Inhibition of GH release (%) 120 min ([4]; dose 1 nM): 45.8%
- Inhibition of GH release (%) 0 min ([4]; dose 3 nM): 77.6%
- Inhibition of GH release (%) 30 min ([4]; dose 3 nM): 83.4%
- Inhibition of GH release (%) 60 min ([4]; dose 3 nM): 75.3%
- Inhibition of GH release (%) 120 min ([4]; dose 3 nM): 58.8%
- Inhibition of GH release (%) 0 min ([4]; dose 10 nM): 96.6%
- Inhibition of GH release (%) 30 min ([4]; dose 10 nM): 97.2%
- Inhibition of GH release (%) 60 min ([4]; dose 10 nM): 97.1%
- Inhibition of GH release (%) 120 min ([4]; dose 10 nM): 90.0%
- Inhibition of GH release (%) 0 min ([4]; dose 30 nM): 83.6%
- Inhibition of GH release (%) 30 min ([4]; dose 30 nM): 93.9%
- Inhibition of GH release (%) 60 min ([4]; dose 30 nM): 89.3%
- Inhibition of GH release (%) 120 min ([4]; dose 30 nM): 98.9%
- inhibition of GH-RH(1-29)NH2 -induced GH secretion ([3]; 80 μg/kg, 5 minutes after administration): about 24%
- GH Levels ([3]; antagonist 80.0 μg/kg intravenously, GH-RH(1-29)NH2 3 μg/kg): 1231.3 ± 81.3 ng/mL

Compound: CCCC[C@H](NC(=O)[C@@H](NC(=O)[C@H](CC(=O)O)NC(=O)[C@H](CCC(N)=O)NC(=O)[C@H](CC(C)C)NC(=O)[C@H](CC(C)C)NC(=O)[C@H](CCCCN)NC(=O)[C@H](CCCNC(=N)N)NC(=O)[C@H](C)NC(=O)[C@H](CO)NC(=O)[C@H](CC(C)C)NC(=O)[C@H](CCC(N)=O)NC(=O)[C@H](CC)NC(=O)[C@H](CC(C)C)NC(=O)[C@@H](NC(=O)[C@H](CCCCN)NC(=O)[C@H](CCCNC(=N)N)NC(=O)[C@H](Cc1ccc(O)cc1)NC(=O)[C@H](CO)NC(=O)[C@H](CC(N)=O)NC(=O)[C@@H](NC(=O)[C@H](Cc1ccc(Cl)cc1)NC(=O)[C@@H](NC(=O)[C@H](C)NC(=O)[C@H](CC(=O)O)NC(=O)[C@@H](CCCNC(=N)N)NC(=O)[C@H](Cc1ccc(O)cc1)NC(=O)C(C)C)[C@@H](C)CC)[C@@H](C)O)C(C)C)[C@@H](C)CC)C(=O)N[C@@H](CO)C(=O)NCCCCNC(=N)N [Peptide 19, Ibu^0,D-Arg^2, Phe(pCl)^6,Abu^15,Nle^27]hGH-RH(1-28)Agm] (Isobutyryl-Y[dR]DAI[Phe(4-Cl)]TNSYRKVL[Abu]QLSARKLLQDI[Nle]S-Agmatine)
- GH Levels ([1]; antagonist 20.0 μg/kg intravenously before GH-RH(1-29)NH2): 451.8 ± 42.2 ng/mL
- GH Levels ([1]; antagonist 80.0 μg/kg intravenously before GH-RH(1-29)NH2): 155.0 ± 38.2 ng/mL
- POTENCY (measured against the Standard Antagonist) ([1]; factorial analysis of Bliss and Marks, 95% limits printed below the value): 18.90
- inhibition of the GH response to hGH-RH(1-29)NH2 compared with the standard antagonist (in words) ([1]; rats): significant greater and longer-lasting inhibition
- Inhibition of GH release (%) 0 min ([4]; dose 3 nM): 62%
- Inhibition of GH release (%) 30 min ([4]; dose 3 nM): 16.4%
- Inhibition of GH release (%) 0 min ([4]; dose 10 nM): 70%
- Inhibition of GH release (%) 30 min ([4]; dose 10 nM): 18.2%
- Inhibition of GH release (%) 60 min ([4]; dose 10 nM): 13.9%
- Inhibition of GH release (%) 0 min ([4]; dose 30 nM): 82.7%
- Inhibition of GH release (%) 30 min ([4]; dose 30 nM): 40.7%
- Inhibition of GH release (%) 60 min ([4]; dose 30 nM): 9.6%
- Inhibition of GH release (%) 0 min ([4]; dose 100 nM): 95%
- Inhibition of GH release (%) 30 min ([4]; dose 100 nM): 74.7%
- Inhibition of GH release (%) 60 min ([4]; dose 100 nM): 36.7%
- R.A. (relative affinity compared to the Standard antagonist) [5]: 26.18
